Laboratory results from the supplement of paper PMC3334620.
Whole data set: some 33,000 sequences, median “E-score (-0.5 to 0.5)” near -0.04, cut for the highest 2% near 0.36. Some of the results follow.

target: T1, Hmlalpha2 (UniProt P0CY09); test: PBM E-score (8-mer binding enrichment) (E-score (-0.5 to 0.5)); higher = stronger / more preferred TF binding; most listed sequences are background and not binding sites; details: protein concentration: 200 nM; construct: GST-full length
T1 sequence: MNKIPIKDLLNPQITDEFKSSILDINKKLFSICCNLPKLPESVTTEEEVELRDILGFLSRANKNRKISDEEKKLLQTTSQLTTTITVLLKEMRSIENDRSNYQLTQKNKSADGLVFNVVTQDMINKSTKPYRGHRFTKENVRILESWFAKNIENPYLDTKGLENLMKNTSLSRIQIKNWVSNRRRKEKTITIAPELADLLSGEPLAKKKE
Summary of the method: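 Detection of bound protein used fluorescent anti-GST, with scans normalised by masliner. The proteins were GST-tagged yeast transcription factors applied at about 100-200 nM to universal all-10-mer Agilent arrays made double-stranded by primer extension. Each ungapped eight-base word, pooled with its reverse complement, was scored with an E-score from the Universal PBM Analysis Suite.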

| Sequence | PBM E-score |
| --- | --- |
| ACTCGAGT | 0.216 |
| AGAATGAA | 0.0371 |
| AGACGGTA | -0.168 |
| TCGGCTAA | -0.0589 |
| TAGTTGGA | 0.00334 |
| CCACCGAC | -0.106 |
| TACAGATA | 0.0941 |
| AAAGAGAT | -0.0469 |
| AATCCTGC | -0.0638 |
| ACAACGGT | 0.128 |
| ACACGGTA | 0.366 |
| ATATGGGC | -0.109 |
| TAGCTGCA | -0.0884 |
| AAACGATG | 0.0541 |
| AACCCGGT | -0.174 |
| ATATGCCA | -0.212 |
| TACACCGA | 0.115 |
| GAAAAGGC | -0.148 |
| GTGCCTGA | -0.237 |
| AACACATA | 0.39 |
| TCAACAAA | 0.272 |
| ACGCGCAC | 0.189 |
| GAAGAGCA | -0.147 |
| CCACGCAA | -0.0282 |
| ATCCACCA | -0.092 |

| Sequence | PBM E-score |
| --- | --- |
| CAAGAGCA | -0.00496 |
| CTTGCTTA | -0.0865 |
| GAACAACC | -0.0114 |
| CACGACTC | 0.186 |
| AATGCCGC | -0.107 |
| CGGCACCG | -0.155 |
| ATTGTAAG | 0.0623 |
| CAATGCTC | -0.0938 |
| CAAACTTG | 0.0129 |
| CTATGAGC | -0.197 |
| CATAGTAG | -0.0314 |
| AAGTCCCC | -0.248 |
| GAGGGTGA | -0.233 |
| AACCCGGG | -0.179 |
| AAGTACGG | 0.0031 |
| TAGCTAGA | 0.0152 |
| ATGAGGCA | -0.148 |
| ATATGCGC | 0.154 |
| ATATCATA | 0.148 |
| GACGTTGC | -0.129 |
| AGGTACCC | -0.312 |
| CATCCAAC | 0.077 |
| CTTATAGC | 0.0895 |
| GCAGTCGC | -0.219 |
| ATAGGGGA | -0.308 |

| Sequence | PBM E-score |
| --- | --- |
| GGCCGTGA | -0.249 |
| AGTTTGAG | -0.0384 |
| AGTATGAA | 0.123 |
| CACCACCG | -0.185 |
| AGACTGCC | -0.15 |
| ACTAAGCT | 0.102 |
| AGAAGCGG | -0.259 |
| AGCCAGTC | -0.326 |
| CCGTGGGC | -0.189 |
| CTACCAGC | -0.171 |
| ATGACGAA | 0.156 |
| ACTCGGAC | -0.0661 |
| CAGAGGGC | -0.164 |
| ACTACAGG | 0.133 |
| CAAGTCGG | -0.175 |
| ACTTTCGG | -0.0932 |
| AACGATTC | -0.0757 |
| GTAGGCAC | -0.107 |
| CTACACAG | 0.421 |
| ACCAATGC | -0.0446 |
| CCATCCGG | -0.249 |
| AGAATTGG | -0.205 |
| CCGGAAAA | -0.0183 |
| CGATATAA | 0.0472 |
| AATTTGGA | 0.0448 |

| Sequence | PBM E-score |
| --- | --- |
| ACCCTTCG | -0.106 |
| ACTTCAAA | -0.0197 |
| CAAAGTAA | 0.199 |
| ACAGATTG | 0.0116 |
| GATAAAGA | -0.18 |
| AATTGTTG | 0.119 |
| CGATGCCA | -0.156 |
| CACTCATA | -0.0437 |
| AAGGGCTC | -0.21 |
| GCAGTCAC | -0.215 |
| ACCACCTG | -0.221 |
| GTGACTCA | -0.132 |
| ACGCGCAA | 0.231 |
| CAAACCGC | -0.231 |
| ATGCACAT | 0.103 |
| ACTTCCAA | -0.0901 |
| ACACGACG | 0.42 |
| ATGTAAGA | 0.433 |
| ATTTGTCA | 0.123 |
| AACTATGT | 0.335 |
| ACTAGAAT | 0.137 |
| AATCAAGT | 0.226 |
| CCGGGGAG | -0.241 |
| ACCAGGGA | -0.0847 |
| AAAGAAGG | -0.204 |

| Sequence | PBM E-score |
| --- | --- |
| AGCATTTG | 0.00311 |
| ATAATGTC | 0.13 |
| AGTACAGG | 0.134 |
| GCGAAAGC | -0.122 |
| CGGCTGGC | -0.216 |
| CCGTAACA | 0.262 |
| ACTTCCCA | -0.156 |
| CCTGTAAG | -0.00273 |
| AAAATTTA | 0.107 |
| GCATCAAC | 0.0819 |
| CGAAAAAG | -0.0861 |
| ACGCCCGA | -0.177 |
| ACCGGCGG | -0.414 |
| CCTTTAAG | -0.0876 |
| TATTGAGA | 0.0411 |
| CTAGGTGC | -0.231 |
| ACAGAGAA | 0.018 |
| CGGCCGAC | -0.188 |
| GTAAGTCA | 0.102 |
| ACTGGCGG | -0.173 |
| GTGGAAGA | -0.0343 |
| CGACCGGA | -0.258 |
| CCAGTAAA | 0.0249 |
| TCATCCCA | -0.231 |
| AGTATTCA | 0.148 |

| Sequence | PBM E-score |
| --- | --- |
| GACTCTAA | -0.0784 |
| ACCGAGTG | -0.0761 |
| CGCGGTAC | -0.0317 |
| TACATCCA | 0.311 |
| TCATAAGA | -0.00466 |
| CCTGGGCC | -0.254 |
| AGGCTGCG | 0.0127 |
| TAATTTCA | 0.182 |
| ACCAAAAG | 0.0656 |
| GGGGCATA | -0.257 |
| AATGCAGC | -0.17 |
| CCGGATAG | -0.0549 |
| ATTCAAAA | 0.121 |
| CGGTTGTA | 0.121 |
| TGATGCCA | -0.099 |
| CGGCGAAC | -0.257 |
| ATACCCTC | -0.0624 |
| CCGCATTA | -0.0889 |
| TCCACTCA | -0.171 |
| CTTTGTGC | 0.159 |
| AGTTATGA | -0.0139 |
| ATCGAGTA | 0.145 |
| GTTGAGGA | 0.0618 |
| CGGTCGAC | -0.137 |
| GTGTGCGA | -0.0166 |

| Sequence | PBM E-score |
| --- | --- |
| AAAATAAA | 0.0428 |
| CTACTTTC | 0.0711 |
| ATGTTCTC | 0.151 |
| ACGGTTCT | 0.144 |
| ATGTCAGC | 0.155 |
| AGCCGGGA | -0.236 |
| AACGGACG | -0.152 |
| CGCGGCGA | -0.0361 |
| AGAGTGAT | -0.0285 |
| CTTTAACA | 0.363 |
| GTTAATTA | 0.359 |
| CCAATAGG | -0.0903 |
| ATGGTCTA | -0.0996 |
| CTATTAGA | -0.0387 |
| GAAACGTC | -0.172 |
| TCTGAACA | 0.121 |
| AAATATCA | 0.0754 |
| CCGGCCCA | -0.343 |
| CTACGAAC | 0.0761 |
| AAGTTACC | 0.108 |
| GTGCCAAA | -0.084 |
| CCCGATAC | -0.0785 |
